Experimental data taken from patent US20010044437A1, “Methods for reducing uric acid levels” (priority 2000, published 2001).
The source gives many values for each of these; only a part stands here.

Tested on: serum uric acid
Test: Serum uric acid during 28-day once-daily oral dosing, placebo-controlled study in 48 subjects (Example 34)
Format: in vivo, human
Protocol: In another study, 48 subjects were divided into four groups, A, B, C and D, and administered the noted amount of the compound of Example 3. Each group was composed of 12 subjects of whom 9 received the compound and 3 received placebo. The non-placebo members of group A received 50 mg of compound, administered orally once a day for 28 days as a single 50 mg tablet. The non-placebo members of group B received 200 mg of compound administered orally once a day for 28 days as a single 200 mg tablet. The non-placebo members of group C received 500 mg of compound administered orally once a day for 28 days as two 50 mg tablets and two 200 mg tablets. The non-placebo members of group D received 800 mg of compound administered orally once a day for 28 days as four 200 mg tablets. The 3 placebo members of each group, received an amount of placebo, as a tablet, equivalent to the amount of test compound—50 mg placebo for group A, 200 mg placebo for group B, 500 mg placebo for group C and 800 mg placebo for group D. Each subject received a single dose of either compound or placebo for 28 days. The subjects were confined at the clinical site beginning the day before dose administration until 72 hours after the final dose administration on Day 28 and returned for an outpatient visit on Day 35.
Uric acid levels were measured prior to beginning the study (screening), on the day immediately prior to commencement of the study (day-1), and then as noted in the table. Hours indicates the time since the last dose was administered. For example, Day 7, 0 hour indicates the time the serum uric acid level at the time the dose was administered and Day 7, 2 hour indicates the uric acid level two hours after the adminstration that day. Further, the Day 30, 60 hour level is the serum uric acid level measured 60 hours (on Day 30) after the last dose was administered on Day 28. The uric acid levels are presented in mg/dL as a mean of all subjects in each group.

O=C(O)Cn1cc(Cc2nc3c(F)c(F)cc(F)c3s2)c2ccccc21 [Example 3, 3-(4,5,7-Trifluorobenzothiazol-2-yl)methyl-indole-N-acetic Acid]
Uric Acid Level (mean of all subjects in each group) (group A 50 mg orally once a day, Day 1 0 Hour): 4.72 mg/dL
Uric Acid Level (mean of all subjects in each group) (group A 50 mg orally once a day, Day 1 0.5 Hour): 4.64 mg/dL
Uric Acid Level (mean of all subjects in each group) (group A 50 mg orally once a day, Day 1 1 Hour): 4.56 mg/dL
Uric Acid Level (mean of all subjects in each group) (group A 50 mg orally once a day, Day 1 2 Hour): 4.40 mg/dL
Uric Acid Level (mean of all subjects in each group) (group A 50 mg orally once a day, Day 1 3 Hour): 4.26 mg/dL
Uric Acid Level (mean of all subjects in each group) (group A 50 mg orally once a day, Day 1 4 Hour): 4.29 mg/dL
Uric Acid Level (mean of all subjects in each group) (group A 50 mg orally once a day, Day 1 6 Hour): 4.26 mg/dL
Uric Acid Level (mean of all subjects in each group) (group A 50 mg orally once a day, Day 14 12 Hour): 3.09 mg/dL
Uric Acid Level (mean of all subjects in each group) (group A 50 mg orally once a day, Day 14 16 Hour): 3.08 mg/dL
Uric Acid Level (mean of all subjects in each group) (group A 50 mg orally once a day, Day 14 24 Hour): 3.57 mg/dL
Uric Acid Level (mean of all subjects in each group) (group A 50 mg orally once a day, Day 21 0 Hour): 3.49 mg/dL
Uric Acid Level (mean of all subjects in each group) (group A 50 mg orally once a day, Day 28 0 Hour): 3.51 mg/dL
Uric Acid Level (mean of all subjects in each group) (group A 50 mg orally once a day, Day 28 0.05 Hour): 3.39 mg/dL
Uric Acid Level (mean of all subjects in each group) (group A 50 mg orally once a day, Day 28 1 Hour): 3.36 mg/dL
Uric Acid Level (mean of all subjects in each group) (group A 50 mg orally once a day, Day 28 2 Hour): 3.28 mg/dL
Uric Acid Level (mean of all subjects in each group) (group A 50 mg orally once a day, Day 28 3 Hour): 3.18 mg/dL
Uric Acid Level (mean of all subjects in each group) (group A 50 mg orally once a day, Day 28 4 Hour): 3.14 mg/dL
Uric Acid Level (mean of all subjects in each group) (group A 50 mg orally once a day, Day 28 6 Hour): 3.48 mg/dL
Uric Acid Level (mean of all subjects in each group) (group A 50 mg orally once a day, Day 28 8 Hour): 3.48 mg/dL
Uric Acid Level (mean of all subjects in each group) (group A 50 mg orally once a day, Day 28 10 Hour): 3.50 mg/dL
Uric Acid Level (mean of all subjects in each group) (group A 50 mg orally once a day, Day 28 12 Hour): 3.46 mg/dL
Uric Acid Level (mean of all subjects in each group) (group A 50 mg orally once a day, Day 28 16 Hour): 3.29 mg/dL
Uric Acid Level (mean of all subjects in each group) (group A 50 mg orally once a day, Day 28 24 Hour): 3.60 mg/dL
Uric Acid Level (mean of all subjects in each group) (group A 50 mg orally once a day, Day 29 48 Hour after last dose on Day 28): 3.76 mg/dL
Uric Acid Level (mean of all subjects in each group) (group A 50 mg orally once a day, Day 30 60 Hour after last dose on Day 28): 3.94 mg/dL
Uric Acid Level (mean of all subjects in each group) (group A 50 mg orally once a day, Day 31 72 Hour after last dose on Day 28): 4.35 mg/dL
Uric Acid Level (mean of all subjects in each group) (group A 50 mg orally once a day, Day 32 96 Hour after last dose on Day 28): 4.96 mg/dL
Uric Acid Level (mean of all subjects in each group) (group A 50 mg orally once a day, Day 33 120 Hour after last dose on Day 28): 4.91 mg/dL
Uric Acid Level (mean of all subjects in each group) (group A 50 mg orally once a day, Day 34 144 Hour after last dose on Day 28): 5.06 mg/dL
Uric Acid Level (mean of all subjects in each group) (group A 50 mg orally once a day, Day 35 (last dose Day 28)): 4.68 mg/dL
Uric Acid Level (mean of all subjects in each group) (group A 50 mg orally once a day, Day-1 (before dosing)): 4.70 mg/dL
Uric Acid Level (mean of all subjects in each group) (group A 50 mg orally once a day, Screening (before dosing)): 4.52 mg/dL
Uric Acid Level (mean of all subjects in each group) (group B 200 mg orally once a day, Day 1 0 Hour): 5.10 mg/dL
Uric Acid Level (mean of all subjects in each group) (group B 200 mg orally once a day, Day 1 0.5 Hour): 5.01 mg/dL
Uric Acid Level (mean of all subjects in each group) (group B 200 mg orally once a day, Day 1 1 Hour): 4.91 mg/dL
Uric Acid Level (mean of all subjects in each group) (group B 200 mg orally once a day, Day 1 2 Hour): 4.58 mg/dL
Uric Acid Level (mean of all subjects in each group) (group B 200 mg orally once a day, Day 1 3 Hour): 4.28 mg/dL
Uric Acid Level (mean of all subjects in each group) (group B 200 mg orally once a day, Day 1 4 Hour): 4.04 mg/dL
Uric Acid Level (mean of all subjects in each group) (group B 200 mg orally once a day, Day 1 6 Hour): 3.83 mg/dL
Uric Acid Level (mean of all subjects in each group) (group B 200 mg orally once a day, Day 14 0.5 Hour): 2.87 mg/dL
Uric Acid Level (mean of all subjects in each group) (group B 200 mg orally once a day, Day 14 1 Hour): 2.82 mg/dL
Uric Acid Level (mean of all subjects in each group) (group B 200 mg orally once a day, Day 14 2 Hour): 2.64 mg/dL
Uric Acid Level (mean of all subjects in each group) (group B 200 mg orally once a day, Day 14 3 Hour): 2.57 mg/dL
Uric Acid Level (mean of all subjects in each group) (group B 200 mg orally once a day, Day 14 4 Hour): 2.53 mg/dL
Uric Acid Level (mean of all subjects in each group) (group B 200 mg orally once a day, Day 14 6 Hour): 2.67 mg/dL
Uric Acid Level (mean of all subjects in each group) (group B 200 mg orally once a day, Day 14 8 Hour): 2.53 mg/dL
Uric Acid Level (mean of all subjects in each group) (group B 200 mg orally once a day, Day 14 10 Hour): 2.52 mg/dL
Uric Acid Level (mean of all subjects in each group) (group B 200 mg orally once a day, Day 14 12 Hour): 2.52 mg/dL
Uric Acid Level (mean of all subjects in each group) (group B 200 mg orally once a day, Day 14 16 Hour): 2.42 mg/dL
Uric Acid Level (mean of all subjects in each group) (group B 200 mg orally once a day, Day 14 24 Hour): 2.96 mg/dL
Uric Acid Level (mean of all subjects in each group) (group B 200 mg orally once a day, Day 21 0 Hour): 3.39 mg/dL
Uric Acid Level (mean of all subjects in each group) (group B 200 mg orally once a day, Day 28 0 Hour): 3.96 mg/dL
Uric Acid Level (mean of all subjects in each group) (group B 200 mg orally once a day, Day 28 0.05 Hour): 3.92 mg/dL
Uric Acid Level (mean of all subjects in each group) (group B 200 mg orally once a day, Day 28 1 Hour): 3.87 mg/dL
Uric Acid Level (mean of all subjects in each group) (group B 200 mg orally once a day, Day 28 2 Hour): 3.70 mg/dL
Uric Acid Level (mean of all subjects in each group) (group B 200 mg orally once a day, Day 28 3 Hour): 3.66 mg/dL
Uric Acid Level (mean of all subjects in each group) (group B 200 mg orally once a day, Day 28 4 Hour): 3.59 mg/dL
Uric Acid Level (mean of all subjects in each group) (group B 200 mg orally once a day, Day 28 6 Hour): 3.92 mg/dL
Uric Acid Level (mean of all subjects in each group) (group B 200 mg orally once a day, Day 28 8 Hour): 3.87 mg/dL
Uric Acid Level (mean of all subjects in each group) (group B 200 mg orally once a day, Day 28 10 Hour): 3.91 mg/dL
Uric Acid Level (mean of all subjects in each group) (group B 200 mg orally once a day, Day 28 12 Hour): 3.77 mg/dL
Uric Acid Level (mean of all subjects in each group) (group B 200 mg orally once a day, Day 28 16 Hour): 3.49 mg/dL
Uric Acid Level (mean of all subjects in each group) (group B 200 mg orally once a day, Day 28 24 Hour): 4.07 mg/dL
Uric Acid Level (mean of all subjects in each group) (group B 200 mg orally once a day, Day 29 48 Hour after last dose on Day 28): 3.40 mg/dL
Uric Acid Level (mean of all subjects in each group) (group B 200 mg orally once a day, Day 30 60 Hour after last dose on Day 28): 3.56 mg/dL
Uric Acid Level (mean of all subjects in each group) (group B 200 mg orally once a day, Day 31 72 Hour after last dose on Day 28): 4.41 mg/dL
Uric Acid Level (mean of all subjects in each group) (group B 200 mg orally once a day, Day 32 96 Hour after last dose on Day 28): 4.83 mg/dL
Uric Acid Level (mean of all subjects in each group) (group B 200 mg orally once a day, Day 33 120 Hour after last dose on Day 28): 4.99 mg/dL
